Values joined by “and” are separate entries in the source; they are usually repeats but may differ in a detail not shown here. Equal values may be shown once.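 Grown in 96-well plates, cells were treated for 48 hours with each compound at five concentrations. Insufficient inhibition: endpoint recorded as highest concentration tested. Here, GI50 denotes the concentration required for 50% inhibition of growth. TGI: concentration producing complete growth inhibition.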
What follows are compounds tested on NCI-H322M lung (assay: DTP human tumour cell line panel, 48 h).

Row | Compound | TGI | GI50
1 | CC(=O)OCC1=C(C(=O)O)C(c2ccc3c(c2)OCO3)c2cc3c(cc2O1)OCO3 (stereo not drawn) | > 100 µM | –
2 | C/C=C(/CCC1NCCC2c3ccccc3NC12)[Si](C)(C)C (stereo not drawn) | 26 µM | –
3 | CCC(CCC(C)C1CCC2C3CC=C4CC(OC5OC(CO)C(O)C(O)C5O)CCC4(C)C3CCC12C)C(C)C (stereo not drawn) | > 100 µM | –
4 | CCOC(=O)C1=c2[nH]c3cccc4cccc(c43)n2C(=O)CC1c1ccccc1 (stereo not drawn) | > 100 µM | –
5 | CCCC[n+]1c(/C=C\c2c(OC)cc(OC)cc2OC)ccc2ccccc21 | 8.08 µM | 2.45 µM
6 | CN(C)CCC=C1c2ccccc2C(C)(C)c2ccccc21 | 34 µM | 16.3 µM
7 | Cc1cc(C)c2c(c1)C1=NCCN1C2(O)c1ccc(Cl)cc1 (stereo not drawn) | 20 µM | –
8 | COC(=O)/C=C(/C(=O)OC)c1cc2ccc3c([nH]c4ccccc43)c(C)c-2c1 | 41.5 µM | –
9 | CC(=O)C=NCC(=O)O | > 100 µM | –
10 | COc1cc(/C=C2\Oc3cc(OCCCN4CCCC4)ccc3C2=O)cc(OC)c1 | 25.6 µM | 12.9 µM
11 | NNC1=N/C(=C\c2ccco2)C(=O)N1 | > 100 µM | –
12 | CC(=O)Nc1ccc(-c2nc3ccccc3s2)cc1C | > 100 µM | –
13 | Cc1cc(=O)[nH]c2cc(NC(=O)C(CCCN=C(N)N)NC(=O)OCc3ccccc3)ccc12 (stereo not drawn) | > 100 µM | –
14 | CN(C)CCC(CCN(C)C)=NOC(=O)c1ccccc1 | > 100 µM | –
15 | Cc1cccc2nc3cccc(C(=O)NCCNCCNCCNC(=O)c4cccc5nc6cccc(C)c6nc45)c3nc12 | > 21.2 µM | < 0.0208 µM
16 | C1COCCOCCOCCOCCOCCO1.[Cl][Sn]([Cl])([c]1ccccc1)[c]1ccccc1 | 29.1 µM | 15.7 µM
17 | O=C(Nc1c(C(=O)NC2CCCCC2)[nH]c(=O)[nH]c1=O)c1ccc(Cl)cc1 | > 100 µM | –
18 | CC(=O)[CH-]C(=O)c1ccccc1.CC(=O)[CH-]C(=O)c1ccccc1.CC[C@H](/C=C/C(C)[C@H]1CCC2[C@@H]3CC=C4C[C@@H]([O-])CC[C@]4(C)C3CC[C@@]21C)C(C)C.CC[O-].[Ti+4] (stereo partly drawn) | > 100 µM | > 100 µM
19 | Nc1nc2c(nnn2C2OC(CO)C(O)C2O)c(=O)[nH]1 (stereo not drawn) | > 100 µM | 2.14 µM
20 | COc1cc(C(=O)C2C(=O)c3ccccc3C2C2(O)c3ccccc3CC2C(O)c2cc(OC)c(OC)c(OC)c2)cc(OC)c1OC (stereo not drawn) | > 100 µM | –
21 | CCC(=O)NC(Nc1cccc(F)c1)(C(F)(F)F)C(F)(F)F | > 100 µM | –
22 | CC1(c2cccc(N)c2)C2C(=O)NC(=O)C1C(=O)NC2=O (stereo not drawn) | > 100 µM | –
23 | Cn1c2ccccc2c(=O)c2c(O)cc3c(c21)CC(C1(C)CO1)O3 (stereo not drawn) | 41.7 µM | –

Row | Compound | TGI | GI50
24 | CCOC(=O)CSc1nnc(CSc2nc(-c3ccccc3)c(-c3ccccc3)[nH]2)n1-c1ccccc1 | > 100 µM | –
25 | CSCC[C@H](NC(=O)[C@H](CC(C)C)NC(=O)[C@@H](Cc1ccccc1)NC(=O)CNC(=O)[C@@H](NC(=O)[C@H](C)NC(=O)[C@H](Cc1c[nH]c2ccccc12)NC(=O)[C@H](CCC(N)=O)NC(=O)[C@H](N)CC(N)=O)C(C)C)C(N)=O | > 12.5 µM | –
26 | C[C@]12CC[C@H]3[C@@H](CCC4=CC(=O)CC[C@@]43C)[C@@H]1CC[C@@H]2C(=O)COS(=O)(=O)c1ccc(Br)cc1 | 34.5 µM | –
27 | COC(=O)C(Cc1ccccc1)NP(=O)(O)OCC1OC(n2cc(I)c(=O)[nH]c2=O)CC1O (stereo not drawn) | > 100 µM | –
28 | CC1CCCCN1CC(=O)c1ccc2c(c1)Sc1ccccc1O2 (stereo not drawn) | 28 µM | –
29 | O=C(NNC(=S)Nc1ccc(Br)cc1)c1cc(-c2ccccc2)nc2ccccc12 | 61.2 µM | –
30 | CSc1nc2c(nc(N)n2C2OC(COC(C)=O)C(OC(C)=O)C(OC(C)=O)C2OC(C)=O)c(=O)n1C (stereo not drawn) | > 100 µM | –
31 | CCN1C(=O)/C(=C2\SC(c3ccccc3)(c3ccccc3)c3ccccc32)SC1=S | > 100 µM | –
32 | NC(=O)c1ncn(CCN2CCN(C(=O)NCCCCCCNC(=O)N3CCN(CCn4cnc(C(N)=O)c4N)CC3)CC2)c1N | > 100 µM | –
33 | CC(C)(C)CNC(=O)NCn1cc(-c2ccccc2)nn1 | > 100 µM | –
34 | CC(C)COC(=O)OC(=O)c1ccc(N(C)Cc2cnc3nc(N)nc(N)c3n2)cc1 | > 100 µM | –
35 | O=C(c1ccco1)c1c(C(F)(F)F)nc2ccc(C(F)(F)F)cc2[n+]1[O-] | > 100 µM | 44.5 µM
36 | CCCCc1ccc(-n2sc3ncc([N+](=O)[O-])cc3c2=O)cc1 | 46.1 µM | –
37 | COc1ccc(-c2nn(-c3cccc(NC(=O)Nc4ccccc4)c3)cc2-c2ccncc2)cc1Cl | 9.64 µM | 3 µM
38 | CCCCCCCNC(P(=O)(O)O)P(=O)(O)O | > 100 µM | –
39 | COc1ccc(/C=C/C(=N/NC(=O)N/N=C(/C=C/c2ccc(OC)cc2)C(C)(C)CN2CCCCC2)C(C)(C)CN2CCCCC2)cc1 | 6.6 µM | –
40 | COc1cccc(-n2cc(-c3nc(Nc4cc(C)[nH]n4)c4ccccc4n3)nn2)c1 | 12 µM | 2.09 µM
41 | Cc1ccc(NCC(=O)N2CC(=O)Nc3ccccc32)cc1 | > 100 µM | –
42 | CN(C)CC1CCC/C(=C\c2ccc(OC(=O)/C=C/c3ccccc3)cc2)C1=O (stereo not drawn) | 21.1 µM | –
43 | Cn1cc(S(=O)(=O)NC(=O)Nc2ccc(Cl)cc2)c2ccccc21 | > 100 µM | –
44 | CC(C)OP(=O)(OC(C)C)c1ccc2c(c1)OCCOCCOCCOCCO2 | > 100 µM | –
45 | Cc1cc(Cl)ccc1NC(=O)CCCC(=O)C1CCC/C1=N\NC(=O)CC#N (stereo not drawn) | > 100 µM | –
46 | COc1cccc(NC(=O)C(C)(C)C)c1SSc1c(NC(=O)C(C)(C)C)cccc1OC | > 100 µM | –

Row | Compound | TGI | GI50
47 | COC(=O)c1ccc(NCc2c(O)ccc(O)c2Br)cc1Cl | > 100 µM | –
48 | O=C(O)C1CCC(=O)N1S(=O)(=O)c1ccccc1 (stereo not drawn) | > 100 µM | –
49 | CCCCCCCCCCCCCCCC(=O)N[C@H](/C=C/[C@H](O)CCCCCCCCCCCCC)CO | > 100 µM | > 100 µM
50 | CSc1c(C(=O)Nc2ccc(C)cc2)c(N)n(N)c(=O)c1C#N | > 100 µM | –
51 | COC(=O)C(CC(C)=O)CS(=O)(=O)CC(=O)C(=O)Nc1cccc([N+](=O)[O-])c1 (stereo not drawn) | > 100 µM | –
52 | CC1=C(C(=O)Nc2ccc3[nH]ncc3c2)C(c2ccc(Cl)c(Cl)c2)CC(=O)N1 (stereo not drawn) | > 25 µM | > 25 µM
53 | COc1ccc(-c2nnc3n(Cc4ccccc4)c4ccccc4n3c2=O)cc1 | > 100 µM | –
54 | C=C1C(=O)O[C@@H]2[C@H]1CCC(C)=C1C=CC(=O)[C@]12C | 58.6 µM | –
55 | CCOC(=O)C1C(c2ccc(O)c(OC)c2)c2c([nH][nH]c2=O)CC1(C)O (stereo not drawn) | > 100 µM | –
56 | O=[N+]1ON=C(c2ccccc2)C1=C1C(c2c(-c3ccccc3)no[n+]2[O-])=NON1[O-] | 91.5 µM | –
57 | CCCCCCCCCCC/C=C\C[C@H](O)C/C=C1/C(=O)C=C[C@@H]1C/C=C\CCCC(=O)OC | 15.9 µM | 4.3 µM
58 | CC[C@@H](C(=O)[C@H](C)[C@H](O)[C@@H](C)[C@H]1O[C@H]([C@@H](CC)C(=O)O)CC[C@H]1C)C1O[C@]2(C=C[C@@H](O)[C@]3(CC[C@@](C)([C@H]4CC[C@](O)(CC)[C@H](C)O4)O3)O2)[C@H](C)C[C@@H]1C (stereo partly drawn) | 10.8 µM | 1.87 µM
59 | CCC12CCCNC1c1c(n(C)c3ccccc13)C(C(=O)OC)C2 (stereo not drawn) | 239 µM | –
60 | Nc1ccccc1NC(=O)c1ccc(CN2CCC/C(=C\c3ccccn3)C2=O)cc1 | > 100 µM | 2.81 µM
61 | Cn1cc(-c2csc(-c3cn(CCCCN4CCCCC4)c4ccc(F)cc34)n2)c2cccnc21 | 3.12 µM | 1.74 µM
62 | Cc1c(-c2ccccc2)c(C#N)c2nnn(C3CCCCC3)c(=O)n12 | > 100 µM | –
63 | COC(C(=O)C(O)C(C)O)C1Cc2cc3cc(OC4CC(OC5CC(O)C(O)C(C)O5)C(O)C(C)O4)c(C)c(O)c3c(O)c2C(=O)C1OC1CC(OC2CC(O)C(OC3CC(C)(O)C(O)C(C)O3)C(C)O2)C(O)C(C)O1 (stereo not drawn) | 0.0616 µg/mL and 0.121 µg/mL | 0.0112 µg/mL and 0.000901 µg/mL
64 | COc1ccc(P2(=S)SP(=S)(c3ccc(Cl)cc3)S2)cc1 (stereo not drawn) | > 100 µM | –
65 | C=C1COC(O)(C2OCOC(C3CC(=O)NC(=O)C3)C2O)C1C (stereo not drawn) | 0.0369 µM and 0.0555 µM | 0.00302 µM
66 | COc1cccc(C2ON=C(c3ccccc3)N2C23CC4CC(CC(C4)C2)C3)c1 (stereo not drawn) | > 10 µM | –
67 | O=c1c2cccc(F)c2sc2c(N3CCNCC3)nc3ccccc3c12 | 2.95 µM | 1.59 µM
68 | COC(=O)C1(C(=O)OC)N=C(C)OC1c1ccccn1 (stereo not drawn) | > 100 µM | –
69 | NC1(C(=O)O)CCc2ccc(N(CCCl)CCCl)cc2C1 (stereo not drawn) | > 100 µM | –

Row | Compound | TGI | GI50
70 | O=C(N=Nc1c(O)[nH]c2ccccc12)c1oc2ccccc2c1CN1CCN(c2ccccc2)CC1 | 47.4 µM | 3.88 µM
71 | O=C(OC[C@H]1C[C@H]2C(=O)CCC[C@H]2O1)c1ccccc1 | > 100 µM | –
72 | CC(=O)O[C@H]1C=CC(=O)C(C)CC1C (stereo partly drawn) | > 100 µM | –
73 | C/C(=N\NS(=O)(=O)c1ccc(C)cc1)c1cc2ccccc2n1C | > 100 µM | –
74 | Nn1c(CCCCCCCCc2nnc(COc3ccccc3)n2N)nnc1COc1ccccc1 | > 100 µM | –
75 | COc1ccc2c(Cc3c4ccccc4cc4ccccc34)cncc2c1O | 58.1 µM | –
76 | O=C(Nc1ccc(Sc2ccc(N=Nc3c(O)c(S(=O)(=O)O)cc4cc(S(=O)(=O)O)ccc34)cc2)cc1)c1ccc(N=Nc2c(O)ccc3c(S(=O)(=O)O)cc(S(=O)(=O)O)cc23)cc1 | > 100 µM | –
77 | COc1cc2c(cc1OC)CN1CCCc3cc(OC)c(OC)cc3C1C2 (stereo not drawn) | > 100 µM | –
78 | CCC(C)[C@H](NC(=O)NC(=O)NC(=O)CI)C(=O)OC (stereo partly drawn) | > 100 µM | > 100 µM
79 | COC(=O)c1ccc2c(c1)C(=O)c1c-2n(C)c(=O)c2cc(OC)c(OC)cc12 | > 50 µM | > 50 µM
80 | O=C(NNCC(F)(F)F)c1ccncc1 | > 100 µM | –
81 | Clc1cc2c(nn1)Nc1ccccc1S2 | > 100 µM | > 100 µM
82 | O=C1CCCCC=C1C[N+](=O)[O-] | > 100 µM | > 100 µM
83 | Clc1ccc(CNc2nc(Cl)c3[nH]cnc3n2)cc1Cl | > 100 µM | –
84 | Cc1cc2nc3ccc(=[N+](C)C)cc-3sc2cc1N | 19.6 µM and 48.9 µM and 16.7 µM | 5.13 µM and 4.39 µM
85 | Cc1cc(C)n2c(-c3ccccc3)c(C)cc2n1 | > 100 µM | –
86 | CCN(CC)CCOc1ccc(/C=C2\C[C@H]3[C@H]4CC=C5C[C@@H](O)CC[C@]5(C)[C@H]4CC[C@]3(C)[C@H]2O)cc1OC | 13.7 µM | 6.69 µM
87 | Cc1ccc(NC(=O)CC/C(CC(=O)C(C)(C)C)=N/NC(=O)C[N+](C)(C)C)cc1C | > 100 µM | –
88 | Cn1c(=O)c2ccc(-c3ccc(Br)cc3)nc2n(C)c1=O | > 100 µM | –
89 | CC1(C)OCC(C2OC(OC(=O)c3ccc([N+](=O)[O-])cc3)C3OC(C)(C)OC23)O1 (stereo not drawn) | > 100 µM | –
90 | CO[C@]12C=C/C(=C(/C(=O)OCc3cccnc3)C(=O)CCCCCCCC[C@@]3(OC)C=C/C(=C(/C(=O)OCc4cccnc4)C(=O)CCCCCCCC1)O3)O2 | 15.8 µM | 3.63 µM
91 | COC(=O)C(C(=O)C(=O)Nc1ccccc1C#N)c1nc2ccc([N+](=O)[O-])cc2[nH]c1=O (stereo not drawn) | > 100 µM | –

Source: PubChem BioAssay (NCI)
